# The whole screen tested about 230,000 compounds, of which about 3,600 (1.6%) were called active. Inconclusive means that the source gave no clear call. Such entries were picked first, then a sample of the others. Calls follow the shape of the dose curve; as a rule, active = well fitted inhibition curve with a large enough effect (not every such curve was filed as active); inconclusive = small, poorly fitted or top-dose-only effect, or another doubt; inactive = no such curve, though single readings can be large or run the other way. Potencies beside an inconclusive call are fits to weak or partial responses and may not hold up.
# Target: Lysine-specific demethylase 4E (Homo sapiens) (UniProt B2RXH2)
# Sequence of UniProt B2RXH2 (B2RXH2 whole entry, looked up, the tested form may be a part): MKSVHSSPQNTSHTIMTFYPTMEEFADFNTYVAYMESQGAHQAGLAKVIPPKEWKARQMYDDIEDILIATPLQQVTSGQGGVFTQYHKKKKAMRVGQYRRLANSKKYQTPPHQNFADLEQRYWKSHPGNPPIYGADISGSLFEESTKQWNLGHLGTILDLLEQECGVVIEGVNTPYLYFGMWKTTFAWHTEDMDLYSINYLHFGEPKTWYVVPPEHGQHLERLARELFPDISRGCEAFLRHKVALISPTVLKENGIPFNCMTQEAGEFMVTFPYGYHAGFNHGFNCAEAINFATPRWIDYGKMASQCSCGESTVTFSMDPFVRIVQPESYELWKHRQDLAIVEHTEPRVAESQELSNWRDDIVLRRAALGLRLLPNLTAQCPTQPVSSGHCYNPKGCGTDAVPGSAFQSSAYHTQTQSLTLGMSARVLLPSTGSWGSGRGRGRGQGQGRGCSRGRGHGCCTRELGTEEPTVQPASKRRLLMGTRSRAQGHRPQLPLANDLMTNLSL
# Experiment: qHTS Assay for Inhibitors of Human Jumonji Domain Containing 2E (JMJD2E)
# Conditions: JMJD2E catalytic domain, FDH-coupled NADH fluorescence (FDH is formaldehyde dehydrogenase); series mostly up to 57.1 µM
# Also: nearly all actives have a fitted effect of over 50% in size.
# Potency is read from the fitted curve at half-maximal effect; tags tell the direction and shape of the fitted curve.
row,SMILES,Potency
1,O=C(c1ccco1)N1CCN(C(=O)c2cnn3cccnc23)CC1,"inconclusive: 35.5 µM [inhibitor, single point]"
2,CCN(CCCNS(=O)(=O)c1ccc2c(c1)CCN2C(C)=O)c1cccc(C)c1,"inconclusive: 39.8 µM [inhibitor, single point]"
3,COc1ccc(-c2nn(C)c(=O)c3ccccc23)cc1CNS(C)(=O)=O,"inconclusive: 28.2 µM [inhibitor, single point]"
4,CC(NCC1(N2CCOCC2)CCCCC1)C(=O)N1CCc2ccccc21 (stereo not given),"inconclusive: 39.8 µM [inhibitor, single point]"
5,O=C(O)C1Cc2ccccc2CN1C(=O)COc1ccc(Br)cc1 (stereo not given),inactive
6,c1ccc(CN(Cc2ccco2)C(c2ccncc2)c2nnnn2C2CCCC2)cc1 (stereo not given),"inconclusive: 31.6 µM [inhibitor, single point]"
7,COC(=O)c1nnn(-c2cccc(Cl)c2)c1C(=O)OC,inactive
8,CCCN=C(C)c1c(-c2ccccc2)[nH]n(-c2nc3ccccc3s2)c1=O,inactive
9,O=C(O)C(C(=O)/C=C/c1ccco1)=C1SCCS1,inactive
10,CCCOC(=O)c1ccc(Oc2cn[nH]c2-c2ccc(OCC)cc2O)cc1,inactive
11,Fc1ccc(NC(=S)Nc2ccccc2N2CCOCC2)cc1Cl,inactive
12,O=C(Nc1ccc(Cl)cc1)/C(=C/c1ccc([N+](=O)[O-])cc1)c1nc2ccccc2s1,"inconclusive: 31.6 µM [inhibitor, single point]"
13,Nc1ccc(O)c(C(=O)O)c1,"inconclusive: 3.98 µM [inhibitor, full curve]"
14,N#CC1=C(N)OC2=C(C(=O)CCC2)[C@]12C(=O)N(CC(N)=O)c1ccccc12,inactive
15,COc1ccc(S(=O)(=O)NCCc2c(C)nn(C)c2Oc2ccccc2)cc1,inactive
16,CCN(CC)c1ccc2cc(C(=O)Nc3ccc(-n4cnnn4)c(OC)c3)c(=O)oc2c1,"inconclusive: 25.1 µM [inhibitor, single point]"
17,CCC(c1nnnn1Cc1ccco1)N(CCc1ccccc1)Cc1cc2cc(C)ccc2[nH]c1=O (stereo not given),"inconclusive: 39.8 µM [inhibitor, single point]"
18,CCOc1ccc2c(C)c(C(=O)O)oc2c1OCC,"inconclusive: 28.2 µM [inhibitor, partial curve]"
19,CSc1ccc(CN(C)CC(=O)Nc2c(F)cccc2F)cc1,"inconclusive: 22.4 µM [inhibitor, single point]"
20,O=c1c2ccccc2nc2c3ccccc3c(NCCN3CCOCC3)nn12,"inconclusive: 31.6 µM [inhibitor, partial curve]"
21,Cc1ccc(NC(=O)CCS(=O)(=O)c2ccc(Br)cc2)nc1,"inconclusive: 39.8 µM [inhibitor, single point]"
22,COc1ccc(C(=O)N2CCCc3ccccc32)cc1,inactive
23,CCN(CC)C(=O)c1sc(NC(=O)Cc2ccccc2)c(C#N)c1C,inactive

row,SMILES,Potency
1,COc1ccc(NC(=O)C2=C(C)Nc3ncnn3C2c2ccccc2C(F)(F)F)c(OC)c1 (stereo not given),"inconclusive: 31.6 µM [inhibitor, single point]"
2,CCNC(=O)NC(=O)C(C)OC(=O)c1oc2ccc(OC)cc2c1C (stereo not given),"inconclusive: 22.4 µM [inhibitor, partial curve]"
3,COc1ccc(N2CCN(CCCNC(=O)CC3Oc4ccc(C)cc4NC3=O)CC2)cc1 (stereo not given),inactive
4,Cc1nc(NC2CCCCC2)c2nc(-c3ccccc3)n(CCCN(C)C)c2n1,"inconclusive: 28.2 µM [inhibitor, partial curve]"
5,C=CCSc1nc2ccccc2n1C(=O)/C=C/c1ccc(OC)c(OC)c1,"inconclusive: 39.8 µM [inhibitor, single point]"
6,COc1cccc(/C=N/NC(N)=S)c1OCc1ccccc1Cl,"inconclusive: 35.5 µM [inhibitor, single point]"
7,CC(C(=O)NCC1CCCO1)N(C(=O)c1snc(C(N)=O)c1N)c1cccc(F)c1 (stereo not given),"inconclusive: 31.6 µM [inhibitor, partial curve]"
8,COc1ccc2[nH]c(C(=O)Nc3cccc(C)n3)cc2c1,"inconclusive: 35.5 µM [inhibitor, partial curve]"
9,CN1C(=O)C(O)(CC(=O)c2ccc3c(c2)OCO3)c2ccccc21 (stereo not given),inactive
10,CC(NC(=O)c1sc2cc([N+](=O)[O-])ccc2c1Cl)C(C)(C)C (stereo not given),inactive
11,Cc1c(NC(=O)c2ccco2)cccc1-c1nc2cccnc2s1,"inconclusive: 28.2 µM [inhibitor, single point]"
12,O=C(CSc1ccccc1)Nc1ccc(-c2nc3ccccc3[nH]2)cc1,"inconclusive: 35.5 µM [inhibitor, single point]"
13,Brc1ccc(/C=N/Nc2ccc3ccccc3n2)cc1,"inconclusive: 31.6 µM [inhibitor, single point]"
14,CC(C)(O)/C=C1/Oc2ccccc2C1N1CCCCC1 (stereo not given),"inconclusive: 28.2 µM [inhibitor, single point]"
15,Cc1cc(OC(=O)c2c(C)cc(O)cc2O)cc(O)c1C(=O)O,inactive
16,Cc1ccnc(N2CCN(C(=O)CSc3nc4ccccc4nc3N3CCCCC3)CC2)c1,"inconclusive: 39.8 µM [inhibitor, single point]"
17,CC1CCCC(C)N1C(=O)CSc1nnc(COc2cccc3cccnc23)o1 (stereo not given),"inconclusive: 39.8 µM [inhibitor, single point]"
18,CCN(CC)CCN1C(=O)C(=O)/C(=C(/O)c2ccc(C)cc2)C1c1cccnc1 (stereo not given),"inconclusive: 31.6 µM [inhibitor, single point]"
19,CN(C)CCCNC(=O)c1ccc(Cl)c(S(=O)(=O)N(C)c2ccccc2)c1,inactive
20,CCOC(=O)c1c(NC(=O)c2cccs2)sc(CC)c1-c1cccs1,"inconclusive: 28.2 µM [inhibitor, partial curve]"
21,NC(=O)[C@H]1CC2(CC(c3cccc(NC(=O)CC(c4ccccc4)c4ccccc4)c3)=NO2)CN1C(=O)c1ccccc1C(=O)c1ccccc1 (stereo not given in full),inactive
22,O=C(CN1CCN(C2CCCCC2)CC1)NCCC1=CCCCC1,"inconclusive: 39.8 µM [inhibitor, single point]"

# Source: PubChem BioAssay AID2147 (National Center for Advancing Translational Sciences (NCATS), 2009)
